The RNAGym collection of RNA variant scans (doi:10.7554/elife.90254)
Read counts are not given, so values of variants with three or more changes are uncertain.

B1: OR4K15 (parent)
chain: GUUAACGGUCAUAGGCCAUGGAAACUAGGAGCACCAUUUCGCUGCCAGUGAAGAAAUGAACAAAGAAAAUCUGGGCCAGGCAGGCAUCAAAAGAAAUAGUCUUGCGCUCAACCAGAAAGUCUGUAAUCAUUUUAAGGGUA

Variants of: B1
Assay: self-cleavage, relative activity (ratio to wild type); higher = more cleavage; in vitro, sequencing; the parent is a self-cleaving ribozyme
Work on U37C A64U U122A A135G yielded a self-cleavage of 0.79.
Variant A23G U26C U120C U130C U132C has a self-cleavage of 0.71.
U103C G104A A118G A126G U127C showed a self-cleavage of 0.
G20A A24G A36G U39C A95G showed a self-cleavage of 0.49.
Variant U49C A51U U103C has a self-cleavage of 0.29.
A52G G74A U120A showed a self-cleavage of 0.17.
Work on G48A A60C U87C U97C yielded a self-cleavage of 0.9.
Variant A18G A69G G106A G137A has a self-cleavage of 0.02.
Variant A47G A67G U72G G115A A116U has a self-cleavage of 0.01.
In the case of U37C A62U G79A U108C U122A A134G, the self-cleavage is reported as 0.01.
C77U U103C A134G showed a self-cleavage of 2.92.
A22G A92U A114C U130C showed a self-cleavage of 0.
In the case of U39A A54G A86G U102A A114U, the self-cleavage is reported as 0.01.
Work on U2C A66C A96G yielded a self-cleavage of 0.84.
Work on C25A A33G A78G A92G A118G yielded a self-cleavage of 0.06.
In the case of U2C A24G G79A A95G U124G U127C, the self-cleavage is reported as 0.03.
In the case of A11G A60U A62U U108C, the self-cleavage is reported as 0.04.
Work on U26C A47G A63U yielded a self-cleavage of 0.78.
U87C A92G U100C U102C U103C A126G gave a self-cleavage of 0.04.
With A22G A30G A55G U72C the self-cleavage was 0.43.
U37G A111G A114G showed a self-cleavage of 0.02.
In the case of U38A U39C C85U, the self-cleavage is reported as 0.84.
With A18U A51G A86U the self-cleavage was 2.19.
In the case of A13G U103C G123A U132C, the self-cleavage is reported as 0.44.
A23G G28A A68G A96G showed a self-cleavage of 1.33.
For U12C A24G A27U U38C U108C U132A, the self-cleavage was 0.31.
Variant A33G A59G A68G has a self-cleavage of 1.25.
For A18G A55U U100A U131C, the self-cleavage was 0.42.
In the case of A33U U43A A125G, the self-cleavage is reported as 0.6.
A30G G44A A47G gave a self-cleavage of 1.67.
With A22U A114U U131C the self-cleavage was 0.05.
In the case of A24G A30G A92G U120C, the self-cleavage is reported as 0.37.
Work on U2C U3A A114G yielded a self-cleavage of 0.34.
For A52G A116C U132C, the self-cleavage was 0.06.
In the case of U39A A51G A126G U127C A129U, the self-cleavage is reported as 0.22.
A22C C105U A117U gave a self-cleavage of 0.25.
For U38C A54U A68G U100C, the self-cleavage was 2.33.
For A30G A33G A67U A96U, the self-cleavage was 1.63.
Variant A24G U49A A62G U108A A118U has a self-cleavage of 0.
For A33G G74A A114G, the self-cleavage was 0.03.
With U43C U49A A69U U122A the self-cleavage was 1.27.
For A23G G53U U108C, the self-cleavage was 0.03.
Work on U38C C46U U108C A110G yielded a self-cleavage of 0.01.
U2C A64G U108C C112U showed a self-cleavage of 0.01.
Variant A36U U49A A52G U108A has a self-cleavage of 0.03.
For G7A U97C A98U, the self-cleavage was 0.48.
U9C U49C U103C showed a self-cleavage of 1.39.
A23U U72C U97A A117G showed a self-cleavage of 0.29.
Variant A24G A68G G137U has a self-cleavage of 1.33.
Variant A51G U72A U131C has a self-cleavage of 0.13.
For A78U A91G U100C U102A, the self-cleavage was 0.37.
Variant A64G A68G A98G U100C A129U has a self-cleavage of 1.99.
Variant U37C A60C A117G A126G has a self-cleavage of 2.1.
A18G A36G A64U G93U gave a self-cleavage of 1.31.
For U9C G21A A52U, the self-cleavage was 1.91.
For U70A G99A U103C, the self-cleavage was 0.05.
Variant U39A A56G U70C U87A U103C U133C has a self-cleavage of 0.45.
U87C A116G A125U A135G showed a self-cleavage of 1.81.
For U19A G58A U72C, the self-cleavage was 0.07.
C32U G80A A117G showed a self-cleavage of 0.33.
Work on A60U A116G U122C yielded a self-cleavage of 0.8.
For A36U A62U U124A, the self-cleavage was 0.32.
A82G U108C A117G showed a self-cleavage of 0.01.
A47U A118G U132C showed a self-cleavage of 0.34.
Work on U43C A67G C128U A140G yielded a self-cleavage of 1.04.
For A59U A64G A91G A92U U131C, the self-cleavage was 0.99.
U37C U43C A86U A111G showed a self-cleavage of 0.01.
A4G A13G A24G U70C A111G A125C showed a self-cleavage of 0.15.
In the case of U12C A47G A96G, the self-cleavage is reported as 1.56.
Variant A5G A52G U72A A90U U124C has a self-cleavage of 0.1.
With A22G A27G U43A A59G A90G A118G the self-cleavage was 0.15.
Variant G80A U103C G106C A114G has a self-cleavage of 0.
A13G A98G U130C showed a self-cleavage of 0.32.
U43C A66G U87C A114G showed a self-cleavage of 0.03.
Variant U39A A114G A126G has a self-cleavage of 0.14.
G7A A13G A18G U100A showed a self-cleavage of 0.26.
With A47G G74U U87C the self-cleavage was 0.07.
U9A U19C A55G U139C showed a self-cleavage of 1.25.
Work on A18U A66G U97C yielded a self-cleavage of 0.54.
A23G A47U A126G G136A showed a self-cleavage of 0.94.
A52U A111G U120A showed a self-cleavage of 0.01.
Work on U26C U38G U49A A55G A69U yielded a self-cleavage of 1.
With A24G U38C A62G A64G G79A A91U A126G A135G the self-cleavage was 0.18.
With A18G U38C A59G A92G A98G A116G the self-cleavage was 0.28.
A30U A67G A117G showed a self-cleavage of 0.5.
A30G U49G A52U showed a self-cleavage of 1.76.
For G8A A24C A92G, the self-cleavage was 1.42.
For A56G A67G U103C A118G G136A, the self-cleavage was 0.39.
Variant A68G U127C U130C has a self-cleavage of 0.66.
For A18U A52U A60G A68G A90G G99A A116G, the self-cleavage was 0.02.
A13C U57C A67G U122C gave a self-cleavage of 1.2.
U39C U97A U122A showed a self-cleavage of 2.
Work on U3C A56G A96G A114G yielded a self-cleavage of 0.71.
In the case of A13G A98G U108C, the self-cleavage is reported as 0.05.
In the case of A47G U57C A62G A98G, the self-cleavage is reported as 0.22.
Work on U49C A67G A91G yielded a self-cleavage of 0.57.
Work on A24G A110U U127G yielded a self-cleavage of 0.92.
Variant A94G U97A U102C has a self-cleavage of 2.76.
Work on A69G C105U A126G yielded a self-cleavage of 0.06.
A52G U108C U132C gave a self-cleavage of 0.01.
Work on U19C U38C A96C yielded a self-cleavage of 0.21.
Work on A69G C101A U120C yielded a self-cleavage of 0.05.
With U97G U100C U132C the self-cleavage was 2.42.
In the case of A18C A86G U122C, the self-cleavage is reported as 0.62.
With A5U A91G U139A the self-cleavage was 1.2.
A47G A59U U124C gave a self-cleavage of 0.69.
A24G A67G A90G U108C U139A showed a self-cleavage of 0.03.
In the case of A23G A63G A68G U122A, the self-cleavage is reported as 1.02.
U43C A51G A60C U102C gave a self-cleavage of 2.17.
In the case of U9C U39C A54G A59G U87C A129U, the self-cleavage is reported as 0.8.
Work on A5G U26C A62G A82U yielded a self-cleavage of 0.15.
For A30G U87C A89G, the self-cleavage was 0.65.
For A54G A66G A126G U130C, the self-cleavage was 0.33.
Variant A5G G31A A68G has a self-cleavage of 1.02.
For U38C C71U A96G U102C A111G, the self-cleavage was 0.04.
For A60G G80U A116G U127C U132C, the self-cleavage was 0.01.
A55U U70C U103C gave a self-cleavage of 0.58.
For U37C U124C C128U, the self-cleavage was 1.36.
A11G A24C A52G gave a self-cleavage of 1.36.
Work on A5G A33U A51G A92G yielded a self-cleavage of 1.4.
For A22U U39C U132C, the self-cleavage was 1.75.
For A56G U57C A60U A67C U120C, the self-cleavage was 0.34.
G75A A111G A117U showed a self-cleavage of 0.01.
U9C A23G A90G A114U gave a self-cleavage of 0.13.
With U19C A47U A62G U103C U133C the self-cleavage was 0.27.
U2C A22G A59G A89G A90G showed a self-cleavage of 1.12.
G14A A54G U122C showed a self-cleavage of 0.22.
A55G A59G A94G gave a self-cleavage of 0.9.
Work on A63G G75A U87A yielded a self-cleavage of 0.04.
With A36U C46U A47U A52G A64G A114U the self-cleavage was 0.08.
For A22G A51U A55G, the self-cleavage was 2.41.
For A24U U38A A118U, the self-cleavage was 0.4.
Variant U12C A22G A59G U87C has a self-cleavage of 1.05.
C77U A86G A114G gave a self-cleavage of 1.02.
With A60G A66G U103C the self-cleavage was 1.04.
With A11U U38C A82G A89G the self-cleavage was 0.7.
U9C A56G A140G showed a self-cleavage of 1.06.
For U12C A51G A135G, the self-cleavage was 1.25.
Work on U9C A56G A91G yielded a self-cleavage of 1.09.
A52G A60G A78G U87C A91G A98G A116U showed a self-cleavage of 0.01.
Variant A11G A22G U43A U122C has a self-cleavage of 1.06.
A36G U37C A140G gave a self-cleavage of 1.62.
In the case of U19C A56G A98C U120C, the self-cleavage is reported as 0.41.
Work on U9C A59C A140G yielded a self-cleavage of 1.64.
Work on C6U A55G A67C yielded a self-cleavage of 0.94.
Work on A30U A56G A69C U72A yielded a self-cleavage of 0.28.
U37C A125G A126G U132C showed a self-cleavage of 0.96.
Variant G80A A92G U132C has a self-cleavage of 0.12.
U9A U38C A89U U124C showed a self-cleavage of 1.03.
For U2C A24G A67U A110G, the self-cleavage was 0.25.
In the case of A22G U39A A117G A140G, the self-cleavage is reported as 1.74.
Work on A18C A52U A78G yielded a self-cleavage of 0.12.
U26C A68G A69G U102C A129G gave a self-cleavage of 0.83.
With A63G G93A U100C A118G the self-cleavage was 1.59.
U43A A64G A67G A82G showed a self-cleavage of 0.57.
Work on A23G A52G A68G U108C yielded a self-cleavage of 0.07.
For A66U A68G A86G, the self-cleavage was 1.27.
In the case of U19C U39A A51G, the self-cleavage is reported as 1.25.
A22G U57A A64G U72C A92G U103A showed a self-cleavage of 0.1.
With A13G A33G A36G A82U A98U U103C the self-cleavage was 0.49.
Variant A24G U70A A86G U97C has a self-cleavage of 0.83.
With A5G U38C A62U A78G U124C the self-cleavage was 0.2.
Variant G20A U72C A86U U127A has a self-cleavage of 0.34.
Work on A18G U70C A116G U132A U133C yielded a self-cleavage of 1.69.
Work on A62G U108C A117G U131C yielded a self-cleavage of 0.
Work on U37C A54G A110G yielded a self-cleavage of 0.1.
Work on A23G U43C A56G U127C yielded a self-cleavage of 0.45.
